Results reported in PubChem BioAssay AID504832 (National Center for Advancing Translational Sciences (NCATS), 2011).
The whole screen tested about 310,000 compounds, of which about 18,000 (5.8%) were called active. This list was built around the results that the source calls inconclusive (neither active nor inactive); the mix of calls is not that of the screen. The call rests on the fitted dose curve; in most records, active means well fitted inhibition curve with a large enough effect; inconclusive means small, poorly fitted or top-dose-only effect, or another doubt; inactive means no such curve, though single readings can be large or run the other way. No potency is given beside an inconclusive call; the fits are too rough.

assay: Primary qHTS for delayed death inhibitors of the malarial parasite plastid, 48 hour incubation; details: P. falciparum luciferase growth in erythrocytes; series mostly up to 28.7 µM
Outline: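 Luciferase-expressing P. falciparum in infected erythrocytes (2% hematocrit, 0.1% parasitemia final) in RPMI 1640/0.5% Albumax were exposed to compound for 48 hours at 37 C, 5% CO2; growth read as luminescence.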
Potency means the concentration at half of the fitted maximal effect; tags describe the fitted curve by direction and shape.

Row | Compound | Potency
1 | Cc1cc(C)cc(NS(=O)(=O)c2ccc(NC(=S)NC(=O)c3ccc(Br)o3)cc2)c1 | inconclusive [inhibitor, single point]
2 | COc1ccccc1OCC(=O)N(Cc1nc(-c2ccccc2)no1)C1CCCCC1 | active: 13.1 µM
3 | COc1ccc(C(Nc2ccccn2)c2c(NC(=O)c3ccco3)sc(C)c2C)cc1OC (stereo not drawn) | inconclusive [inhibitor, partial curve, poor fit]
4 | COc1ccccc1NC(=S)NNC(=O)c1nn(C)cc1Cl | inconclusive [inhibitor, full curve, poor fit]
5 | CCOC(=O)c1c(CC(C)C)csc1/N=C/C1=C(O)CCCC1=O | inconclusive [inhibitor, single point]
6 | COc1ccccc1N1CCN(C(=O)C2CCN(C(=O)c3ccc(C(C)(C)C)cc3)CC2)CC1 | active: 4.65 µM
7 | Cc1cccc(CNC(=O)c2ccc3nc(Cc4ccccc4F)oc3c2)n1 | inactive
8 | CCc1cc2c(=O)n(CC(=O)NC3CCCCC3)cnc2s1 | inactive
9 | FC(F)(F)c1cccc(-c2cc3ccccc3nc2N2CCCC2)c1 | inconclusive [inhibitor, single point]
10 | O=C(Nc1cccc(S(=O)(=O)N2CCOCC2)c1)C1CCCC1 | inconclusive [inhibitor, single point]
11 | C/C=C/Cn1c(N2CCCCCC2)nc2c1c(=O)[nH]c(=O)n2C | inconclusive [inhibitor, single point]
12 | COc1ccccc1CCNC(=O)C(=O)NCCC1CCCCN1S(=O)(=O)c1ccccc1 (stereo not drawn) | inactive
13 | N#CC1=C2N=C(N)c3ccccc3N2C2=C(C(=O)CCC2)C1c1ccc(Cl)cc1 (stereo not drawn) | inconclusive [inhibitor, single point]
14 | COC(=O)[C@@]12CCCCN1[C@H](c1ccc(-c3ccccc3)cc1)[C@@H]1C(=O)N(C)C(=O)[C@@H]12 | inconclusive [inhibitor, single point]
15 | N/C(COc1cc(Cl)cc(Cl)c1)=N\O | inactive
16 | CC(O)C(NC=C1C(=O)OC(C)(C)OC1=O)C(=O)O (stereo not drawn) | inactive
17 | O=C(CN1CCN(C(=O)c2ccccc2F)CC1)Nc1ccc(Br)cc1 | inactive
18 | CCn1c(=O)n(CC)c2cc(N3CCCC3)c(NC(=O)c3ccc(F)cc3)cc21 | inconclusive [inhibitor, partial curve, poor fit]
19 | Clc1ccc(Nc2nc(NCCN3CCOCC3)nc(N3CCOCC3)n2)cc1 | inconclusive [inhibitor, single point]
20 | CCC(C)NC(=O)Cn1cccc1C(=O)c1ccccc1 (stereo not drawn) | inconclusive [inhibitor, full curve]
21 | CCC(C)(C)NC(=O)C1CCCN(S(=O)(=O)c2ccc3c(c2)CC(C)N3C(=O)C2CC2)C1 (stereo not drawn) | inconclusive [inhibitor, single point]
22 | COC(=O)C(C(=O)OC)c1ccc(N)cc1 | inconclusive [inhibitor, single point]

Row | Compound | Potency
23 | Cc1ccccc1NS(=O)(=O)c1cc(C(=O)NCCC2=CCCCC2)ccc1Cl | inconclusive [inhibitor, single point]
24 | CCNC(=S)N(Cc1cccs1)Cc1cc2cc(OCC)ccc2[nH]c1=O | inconclusive [inhibitor, partial curve, poor fit]
25 | Clc1cccc(CN2CCc3c([nH]c4ccccc34)C2)c1 | inconclusive [inhibitor, partial curve, poor fit]
26 | COC(=O)C1=CN(c2cccc(Cl)c2)C=C(C(=O)OC)C1c1cccc(OC)c1 | active: 11.7 µM
27 | CC(C)CC(=O)NC(=S)NNC(=O)c1ccc([N+](=O)[O-])cc1 | inconclusive [inhibitor, single point]
28 | N#CCc1nc2ccc(S(=O)(=O)N3CCOCC3)cc2s1 | active: 14.7 µM
29 | CS(=O)(=O)c1ccc(C(=O)OCC(=O)NNC(=O)COc2ccc(Cl)cc2)cc1 | inactive
30 | CCc1cccc(C)c1NC(=O)c1ccc(CN2CCc3ccccc3C2)cc1 | active: 4.65 µM
31 | Cc1cccc(OCC(=O)N(Cc2cccs2)C2CCS(=O)(=O)C2)c1 (stereo not drawn) | inconclusive [inhibitor, single point]
32 | COc1ccc(CCNC(=O)c2cc3c(C)nccc3[nH]c2=O)cc1OC | inconclusive [inhibitor, partial curve]
33 | Cc1cccc(CN2C(=O)c3ccccc3Sc3ccc(C(=O)NCCN4CCOCC4)cc32)c1 | inconclusive [inhibitor, partial curve]
34 | CCn1c(SCc2ccc(Cl)cc2)nnc1-c1ccccc1 | inconclusive [inhibitor, single point]
35 | COc1ccccc1NS(=O)(=O)c1cccc(C(=O)NCC2(N(C)C)CCCCC2)c1 | inactive
36 | COc1ccc(CNC(=O)CN(c2ccc(C)cc2)S(=O)(=O)c2c(C)noc2C)cc1 | inactive
37 | C=C(C)CN(CC)C(=O)CSc1ccc(S(=O)(=O)N2CCN(Cc3ccccc3)CC2)cn1 | inconclusive [inhibitor, partial curve, poor fit]
38 | Cc1ccccc1CSCC(=O)NC(=O)NC(C)(C)C | inconclusive [inhibitor, single point]
39 | Cc1ccc2nc(Cl)c3cc(C(=O)NCCCN4CCCC4)sc3c2c1 | inconclusive [inhibitor, full curve]
40 | CCOc1ccc(NC(=O)CN2CCN(CC(=O)Nc3ccc(F)cc3)CC2)cc1 | inconclusive [inhibitor, partial curve]
41 | C#CCOCCOCCOCCNc1nc(N2CCN(C(=O)[C@H](C(C)C)n3cc(CCO)nn3)CC2)nc(N2CCN(C(=O)[C@H](CCCCN)n3cc(CCCC)nn3)CC2)n1 | inactive
42 | CC1CCC(NC(=O)CN2C(=O)COc3ccc(S(=O)(=O)N4CCCC4)cc32)CC1 (stereo not drawn) | inactive
43 | CC1=Nc2ccccc2N=C(NC(=O)CN2CCN(c3ccc(F)cc3)CC2)C1c1ccccc1 (stereo not drawn) | inconclusive [inhibitor, partial curve]
